Experiments:
Rabbit muscle actin [1] = molecular target: T1, Rabbit muscle actin (rabbit, UniProt P68135); assay: fluorescence polarisation; steady-state fluorescence anisotropy of KU560 (excitation 555 nm, emission 650 nm); 0.5 µM KU560-profilin or 2 µM KU560-ADF/cofilin titrated with increasing concentrations of G-actin bound to ATP (control pre-incubated with ATP); G-buffer, room temperature; details: both partners purified
Rabbit muscle actin [2] = molecular target: T1, Rabbit muscle actin; assay: fluorescence polarisation; steady-state fluorescence anisotropy of KU560 (excitation 555 nm, emission 650 nm); 0.5 µM KU560-profilin or 2 µM KU560-ADF/cofilin titrated with increasing concentrations of G-actin pre-incubated 150 min with a 5-fold excess of ATP-ATTO-488 (88% occupancy); G-buffer, room temperature; details: both partners purified

B1: KU560-labeled S. cerevisiae ADF/cofilin (Cof1p) D34C (natural protein)
chain: not shown
modifications: KU560 rigid maleimide dye (the D34C construct was used for this labeling)
notes: also called KU560-ADF/cofilin; KU560-Cof1; source: E. coli Rosetta 2(DE3)pLysS, purified (Nickel-Sepharose, eluted by TEV cleavage); not shown: His6, N-terminal, cleaved
Rabbit muscle actin [1]
  Kd: 1700 ± 500 nM
Rabbit muscle actin [2]
  Kd: 1600 ± 300 nM
